Source: publication PMC2712070
No constants are given. Whether binding was seen depends on the method and setting. For some assays here: Binding seen in cells or lysates may run through a third protein. Some results given as binding are weak or reduced against the parent protein; the word gives no strength.

Amino acid sequences for entries named in this document (tags omitted). Residues count along the entry.
UniProt P25799, residues 1-431: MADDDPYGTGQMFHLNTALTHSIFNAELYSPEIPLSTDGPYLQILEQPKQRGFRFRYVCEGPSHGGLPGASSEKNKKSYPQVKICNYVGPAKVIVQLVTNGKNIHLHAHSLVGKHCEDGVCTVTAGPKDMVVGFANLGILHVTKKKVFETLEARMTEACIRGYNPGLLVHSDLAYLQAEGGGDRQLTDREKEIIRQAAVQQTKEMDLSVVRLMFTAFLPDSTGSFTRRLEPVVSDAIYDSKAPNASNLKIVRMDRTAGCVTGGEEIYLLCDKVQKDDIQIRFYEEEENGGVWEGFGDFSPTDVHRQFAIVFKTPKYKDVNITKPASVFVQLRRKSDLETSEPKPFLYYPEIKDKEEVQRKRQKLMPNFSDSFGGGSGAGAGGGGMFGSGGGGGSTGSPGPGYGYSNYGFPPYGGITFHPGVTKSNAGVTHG
UniProt Q04207: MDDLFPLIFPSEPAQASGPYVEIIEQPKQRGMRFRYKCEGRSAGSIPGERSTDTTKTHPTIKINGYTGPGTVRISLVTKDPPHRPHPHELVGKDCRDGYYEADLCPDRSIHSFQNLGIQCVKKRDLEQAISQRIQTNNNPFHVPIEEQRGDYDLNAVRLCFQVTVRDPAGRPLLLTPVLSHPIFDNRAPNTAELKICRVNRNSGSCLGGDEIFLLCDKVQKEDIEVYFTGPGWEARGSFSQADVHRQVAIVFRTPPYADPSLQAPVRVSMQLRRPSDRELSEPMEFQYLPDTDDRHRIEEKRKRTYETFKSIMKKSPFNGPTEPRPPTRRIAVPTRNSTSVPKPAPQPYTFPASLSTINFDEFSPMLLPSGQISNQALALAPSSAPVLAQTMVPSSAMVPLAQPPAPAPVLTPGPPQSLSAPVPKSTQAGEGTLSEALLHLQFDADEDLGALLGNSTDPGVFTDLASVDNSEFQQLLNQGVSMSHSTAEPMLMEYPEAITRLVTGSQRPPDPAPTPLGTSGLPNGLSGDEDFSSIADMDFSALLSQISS
UniProt P03372: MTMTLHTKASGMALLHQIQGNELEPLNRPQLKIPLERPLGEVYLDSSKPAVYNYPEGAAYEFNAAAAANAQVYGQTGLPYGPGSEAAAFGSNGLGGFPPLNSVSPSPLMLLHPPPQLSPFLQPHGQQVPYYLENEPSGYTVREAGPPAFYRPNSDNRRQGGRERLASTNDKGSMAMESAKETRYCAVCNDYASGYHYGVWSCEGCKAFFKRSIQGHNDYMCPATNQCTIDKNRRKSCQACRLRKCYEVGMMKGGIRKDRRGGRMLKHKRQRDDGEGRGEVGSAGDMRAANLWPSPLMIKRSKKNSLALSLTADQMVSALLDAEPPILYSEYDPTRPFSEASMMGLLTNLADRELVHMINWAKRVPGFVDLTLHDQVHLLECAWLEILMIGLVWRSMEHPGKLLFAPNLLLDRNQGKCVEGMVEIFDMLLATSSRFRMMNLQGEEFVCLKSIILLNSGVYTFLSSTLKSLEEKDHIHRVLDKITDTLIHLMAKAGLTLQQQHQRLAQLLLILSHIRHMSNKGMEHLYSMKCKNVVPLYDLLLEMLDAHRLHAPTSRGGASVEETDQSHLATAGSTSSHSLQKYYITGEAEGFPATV
UniProt P19785: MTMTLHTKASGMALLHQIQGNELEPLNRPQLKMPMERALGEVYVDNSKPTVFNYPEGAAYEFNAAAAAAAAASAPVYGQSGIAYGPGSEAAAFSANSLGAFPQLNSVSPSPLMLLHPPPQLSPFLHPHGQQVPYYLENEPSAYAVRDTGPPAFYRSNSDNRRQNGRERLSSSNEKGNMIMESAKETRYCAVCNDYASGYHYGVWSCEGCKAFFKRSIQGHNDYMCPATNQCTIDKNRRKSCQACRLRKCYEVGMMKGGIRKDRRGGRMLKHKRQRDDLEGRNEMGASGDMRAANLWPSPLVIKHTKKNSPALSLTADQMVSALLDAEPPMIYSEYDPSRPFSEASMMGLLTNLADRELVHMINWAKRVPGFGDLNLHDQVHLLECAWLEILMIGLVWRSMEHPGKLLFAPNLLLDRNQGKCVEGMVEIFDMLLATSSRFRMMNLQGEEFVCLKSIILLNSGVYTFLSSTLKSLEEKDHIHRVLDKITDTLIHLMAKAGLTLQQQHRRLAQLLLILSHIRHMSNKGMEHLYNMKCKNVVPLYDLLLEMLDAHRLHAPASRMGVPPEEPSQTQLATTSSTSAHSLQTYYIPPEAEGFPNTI

T1: full length MS-KIF18A, recombinant (UniProt Q8NI77)
T1 sequence: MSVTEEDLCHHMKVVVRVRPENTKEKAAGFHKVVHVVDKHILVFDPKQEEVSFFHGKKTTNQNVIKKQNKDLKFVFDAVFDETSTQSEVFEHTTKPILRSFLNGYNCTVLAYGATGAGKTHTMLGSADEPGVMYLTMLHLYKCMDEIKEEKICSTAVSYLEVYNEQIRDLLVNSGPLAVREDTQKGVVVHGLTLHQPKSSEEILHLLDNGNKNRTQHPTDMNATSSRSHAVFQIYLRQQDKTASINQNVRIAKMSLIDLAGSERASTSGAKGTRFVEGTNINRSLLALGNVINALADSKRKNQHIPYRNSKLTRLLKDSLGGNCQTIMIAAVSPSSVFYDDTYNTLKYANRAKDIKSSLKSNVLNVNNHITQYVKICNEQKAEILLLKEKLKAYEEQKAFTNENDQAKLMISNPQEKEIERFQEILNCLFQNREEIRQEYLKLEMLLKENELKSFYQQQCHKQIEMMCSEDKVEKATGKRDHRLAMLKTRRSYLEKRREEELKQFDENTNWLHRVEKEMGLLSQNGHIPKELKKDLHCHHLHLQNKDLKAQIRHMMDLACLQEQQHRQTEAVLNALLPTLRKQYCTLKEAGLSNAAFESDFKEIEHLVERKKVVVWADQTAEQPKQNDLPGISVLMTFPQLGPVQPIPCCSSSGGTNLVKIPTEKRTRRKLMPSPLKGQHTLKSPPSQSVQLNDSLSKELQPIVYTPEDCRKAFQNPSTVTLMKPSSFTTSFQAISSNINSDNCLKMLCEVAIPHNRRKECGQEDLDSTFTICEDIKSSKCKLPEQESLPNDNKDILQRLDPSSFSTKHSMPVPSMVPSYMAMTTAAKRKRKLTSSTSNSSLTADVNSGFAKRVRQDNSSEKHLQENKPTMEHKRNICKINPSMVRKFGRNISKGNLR

T2: truncated MS-KIF18A construct 1-635 aa, recombinant (UniProt Q8NI77)
T2 sequence: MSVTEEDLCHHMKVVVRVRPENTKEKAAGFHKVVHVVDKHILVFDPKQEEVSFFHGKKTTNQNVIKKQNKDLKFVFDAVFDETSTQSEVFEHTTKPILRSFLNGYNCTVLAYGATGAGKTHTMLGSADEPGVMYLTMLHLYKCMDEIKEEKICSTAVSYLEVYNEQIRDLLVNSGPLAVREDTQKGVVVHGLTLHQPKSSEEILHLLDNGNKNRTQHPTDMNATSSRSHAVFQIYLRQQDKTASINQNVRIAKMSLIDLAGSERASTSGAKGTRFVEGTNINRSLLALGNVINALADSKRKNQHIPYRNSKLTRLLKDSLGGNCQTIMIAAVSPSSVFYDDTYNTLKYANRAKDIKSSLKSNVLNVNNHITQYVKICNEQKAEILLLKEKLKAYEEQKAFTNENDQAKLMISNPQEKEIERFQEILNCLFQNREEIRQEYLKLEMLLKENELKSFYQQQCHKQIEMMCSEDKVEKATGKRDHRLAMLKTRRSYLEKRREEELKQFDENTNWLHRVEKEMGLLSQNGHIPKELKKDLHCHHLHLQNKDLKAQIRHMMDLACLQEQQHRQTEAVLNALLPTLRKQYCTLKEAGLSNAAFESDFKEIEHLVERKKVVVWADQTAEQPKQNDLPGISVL

T3: truncated MS-KIF18A construct 635-898 aa, recombinant (UniProt Q8NI77)
T3 sequence: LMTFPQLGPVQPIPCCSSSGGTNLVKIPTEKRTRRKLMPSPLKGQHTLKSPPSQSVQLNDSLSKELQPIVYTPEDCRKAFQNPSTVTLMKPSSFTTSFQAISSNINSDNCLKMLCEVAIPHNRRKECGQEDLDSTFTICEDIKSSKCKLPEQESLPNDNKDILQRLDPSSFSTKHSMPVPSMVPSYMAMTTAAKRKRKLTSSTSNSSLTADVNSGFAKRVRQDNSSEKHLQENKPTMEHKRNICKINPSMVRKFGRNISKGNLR

T4: MS-KIF18A, endogenous in MBA-15 cells (mouse (endogenous in MBA-15)) (UniProt Q91WD7)
T4 sequence: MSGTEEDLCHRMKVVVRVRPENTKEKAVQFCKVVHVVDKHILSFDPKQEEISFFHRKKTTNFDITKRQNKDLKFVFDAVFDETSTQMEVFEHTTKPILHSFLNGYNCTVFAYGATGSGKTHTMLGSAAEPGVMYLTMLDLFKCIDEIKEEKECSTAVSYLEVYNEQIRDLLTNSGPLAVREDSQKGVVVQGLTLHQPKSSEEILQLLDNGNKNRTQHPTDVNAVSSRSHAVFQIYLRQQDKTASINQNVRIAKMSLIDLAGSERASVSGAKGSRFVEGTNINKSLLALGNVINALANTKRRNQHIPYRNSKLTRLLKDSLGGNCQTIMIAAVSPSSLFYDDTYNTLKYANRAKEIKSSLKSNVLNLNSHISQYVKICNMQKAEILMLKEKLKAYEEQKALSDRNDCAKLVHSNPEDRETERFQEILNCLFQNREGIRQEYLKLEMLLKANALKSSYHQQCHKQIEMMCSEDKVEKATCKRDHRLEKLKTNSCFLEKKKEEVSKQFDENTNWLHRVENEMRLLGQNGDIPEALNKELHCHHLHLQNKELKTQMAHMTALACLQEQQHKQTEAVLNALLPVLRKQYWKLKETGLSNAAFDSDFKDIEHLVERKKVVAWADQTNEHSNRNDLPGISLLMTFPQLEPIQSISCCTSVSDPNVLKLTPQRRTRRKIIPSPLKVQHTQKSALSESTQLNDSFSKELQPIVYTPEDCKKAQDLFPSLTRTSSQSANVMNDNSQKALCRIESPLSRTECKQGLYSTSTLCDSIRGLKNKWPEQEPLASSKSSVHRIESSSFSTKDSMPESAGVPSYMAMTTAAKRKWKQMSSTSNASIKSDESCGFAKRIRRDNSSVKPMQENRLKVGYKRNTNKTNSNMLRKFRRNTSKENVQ


Key:
[1] = target: T1, full length MS-KIF18A, recombinant; experiment: co-IP; called pull down: 0.25 µg of recombinant proteins with poly- or monoclonal anti-MS-KIF18A or anti-ERα and Protein-A sepharose beads overnight at 4°C; western blot; both purified
[2] = target: T2, truncated MS-KIF18A construct 1-635 aa, recombinant; experiment: as above
[3] = target: T3, truncated MS-KIF18A construct 635-898 aa, recombinant; experiment: as above
[4] = target: NF-κB p50 subunit, endogenous (mouse (endogenous in MBA-15)) (UniProt P25799); experiment: co-IP; cell lysates, IP with anti-p50 or anti-p65, western blot with anti-MS-KIF18A or anti-ERα
[5] = target: NF-κB p65 subunit, endogenous (mouse (endogenous in MBA-15)) (UniProt Q04207); experiment: as above
[6] = target: T4, MS-KIF18A, endogenous in MBA-15 cells (mouse (endogenous in MBA-15)); experiment: co-IP; cells fractionated to cytoplasm and nuclear/membrane extracts; IP with anti-MS-KIF18A, western blot with anti-ERα

binding [1]	binding [2]	binding [3]	binding [4]	binding [5]	binding [6]	Molecule
binds	binds	binds				recombinant estrogen receptor alpha (from UniProt P03372 1-595)
			binds	binds	binds	estrogen receptor alpha, endogenous in MBA-15 cells (from UniProt P19785 1-599)
			binds	no binding		MS-KIF18A, endogenous in MBA-15 cells (protein, UniProt Q91WD7 1-886) MSGTEEDLCHRMKVVVRVRPENTKEKAVQFCKVVHVVDKHILSFDPKQEEISFFHRKKTTNFDITKRQNKDLKFVFDAVFDETSTQMEVFEHTTKPILHSFLNGYNCTVFAYGATGSGKTHTMLGSAAEPGVMYLTMLDLFKCIDEIKEEKECSTAVSYLEVYNEQIRDLLTNSGPLAVREDSQKGVVVQGLTLHQPKSSEEILQLLDNGNKNRTQHPTDVNAVSSRSHAVFQIYLRQQDKTASINQNVRIAKMSLIDLAGSERASVSGAKGSRFVEGTNINKSLLALGNVINALANTKRRNQHIPYRNSKLTRLLKDSLGGNCQTIMIAAVSPSSLFYDDTYNTLKYANRAKEIKSSLKSNVLNLNSHISQYVKICNMQKAEILMLKEKLKAYEEQKALSDRNDCAKLVHSNPEDRETERFQEILNCLFQNREGIRQEYLKLEMLLKANALKSSYHQQCHKQIEMMCSEDKVEKATCKRDHRLEKLKTNSCFLEKKKEEVSKQFDENTNWLHRVENEMRLLGQNGDIPEALNKELHCHHLHLQNKELKTQMAHMTALACLQEQQHKQTEAVLNALLPVLRKQYWKLKETGLSNAAFDSDFKDIEHLVERKKVVAWADQTNEHSNRNDLPGISLLMTFPQLEPIQSISCCTSVSDPNVLKLTPQRRTRRKIIPSPLKVQHTQKSALSESTQLNDSFSKELQPIVYTPEDCKKAQDLFPSLTRTSSQSANVMNDNSQKALCRIESPLSRTECKQGLYSTSTLCDSIRGLKNKWPEQEPLASSKSSVHRIESSSFSTKDSMPESAGVPSYMAMTTAAKRKWKQMSSTSNASIKSDESCGFAKRIRRDNSSVKPMQENRLKVGYKRNTNKTNSNMLRKFRRNTSKENVQ
